# Out of some 310,000 compounds screened, about 14,000 (4.5%) showed an effect of 50% or more. Effects have a minus sign here. This is one part of the list.
# Target: human ether-à-go-go-related gene (hERG) potassium channel (human, UniProt Q12809)
# Test: primary screen, population patch clamp on CHO cells stably expressing hERG
# 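Also: peak tail current of the secondary pulse compared with the same well before compound.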
# Sequence of human ether-à-go-go-related gene (hERG) potassium channel (Q12809 whole entry, looked up): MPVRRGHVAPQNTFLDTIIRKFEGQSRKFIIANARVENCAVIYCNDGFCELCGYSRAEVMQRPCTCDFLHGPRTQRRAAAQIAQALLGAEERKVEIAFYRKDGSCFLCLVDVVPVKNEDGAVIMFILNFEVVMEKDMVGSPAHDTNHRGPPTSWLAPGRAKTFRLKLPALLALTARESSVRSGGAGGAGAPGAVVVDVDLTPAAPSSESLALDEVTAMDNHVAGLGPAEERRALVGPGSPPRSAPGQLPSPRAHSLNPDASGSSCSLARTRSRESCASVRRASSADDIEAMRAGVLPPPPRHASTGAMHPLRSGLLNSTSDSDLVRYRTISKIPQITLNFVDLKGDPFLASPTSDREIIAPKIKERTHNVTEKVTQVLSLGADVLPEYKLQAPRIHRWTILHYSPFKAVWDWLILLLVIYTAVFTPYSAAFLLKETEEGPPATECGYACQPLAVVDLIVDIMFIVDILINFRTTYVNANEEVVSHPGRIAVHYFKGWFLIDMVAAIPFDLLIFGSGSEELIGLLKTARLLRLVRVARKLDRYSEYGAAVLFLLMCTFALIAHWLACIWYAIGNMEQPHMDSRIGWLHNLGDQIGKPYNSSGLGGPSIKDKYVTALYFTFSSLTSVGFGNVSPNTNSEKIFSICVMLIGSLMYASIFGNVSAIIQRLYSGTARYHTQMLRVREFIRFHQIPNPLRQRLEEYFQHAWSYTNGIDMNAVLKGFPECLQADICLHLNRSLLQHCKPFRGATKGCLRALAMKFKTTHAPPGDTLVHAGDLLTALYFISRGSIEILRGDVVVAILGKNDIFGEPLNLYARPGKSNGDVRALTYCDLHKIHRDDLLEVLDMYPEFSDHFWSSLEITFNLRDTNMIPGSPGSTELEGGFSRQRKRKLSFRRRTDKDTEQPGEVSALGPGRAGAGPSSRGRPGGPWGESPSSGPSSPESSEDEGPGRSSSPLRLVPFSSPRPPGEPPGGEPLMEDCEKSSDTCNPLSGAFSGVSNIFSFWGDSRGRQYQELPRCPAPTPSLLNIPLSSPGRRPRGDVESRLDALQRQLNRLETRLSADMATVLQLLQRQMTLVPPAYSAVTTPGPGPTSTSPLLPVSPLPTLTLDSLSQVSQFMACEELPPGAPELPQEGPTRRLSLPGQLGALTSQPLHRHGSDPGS
row,Compound,"hERG current change (%, negative = inhibition) at 10uM"
1,CNC(=O)COc1ncnc2sc(C)c(C)c12,1.11%
2,FC(F)(F)c1ccccc1-n1c(-c2cnccn2)n[nH]c1=S,13%
3,O=C(COC(=O)COc1ccccc1)NC1CCCC1,10.5%
4,Cc1ccc(C(=O)OCN2C(=O)c3ccccc3C2=O)cc1S(=O)(=O)N1CCOCC1,-10.6%
5,COc1ccc(CC(=O)Nc2ccc(-c3cn4ccc(C)cc4n3)cc2)cc1,-0.263%
6,O=C(Nc1ccc(S(=O)(=O)N2CCOCC2)cc1)c1cccc([N+](=O)[O-])c1,14.7%
7,O=C(NC(=O)N1CCCCC1)c1ccccc1,10.7%
8,Cc1cccc(NC(=O)CCOc2ccccc2)c1,5.5%
9,CC(C)C1Oc2ccccc2N(CC(=O)NC2CCCCC2)C1=O (stereo not shown),-1.11%
10,COc1cccc(N=Cc2nc(-c3ccccc3)oc2OC(C)=O)c1,-13.3%
11,N/C(=N\OC(=O)c1ccc(Cl)c(Cl)c1)c1ccccn1,3.76%
12,CCC(c1nnnn1C1CCCC1)N1CCN(c2ccccc2F)CC1 (stereo not shown),-14.2%
13,O=C(CCN1C(=O)/C(=C/c2cccs2)SC1=S)Nc1ccc(C(=O)O)cc1,5.49%
14,COc1ccc(S(=O)(=O)N(CCCN2CCOCC2)Cc2cccc3ccccc23)cc1,-48.6%
15,O=C(CSc1nnnn1-c1ccc(O)cc1)c1ccc(F)cc1,-5.76%
16,Cc1ccc(C(=O)N/C(=C\c2ccccc2F)c2nc(=S)[nH][nH]2)cc1,14.4%
17,CCc1cccc(C)c1NC(=S)N1CCCCC1c1cccnc1 (stereo not shown),-8.54%
18,N=c1n(CCOc2ccccc2)c2ccccc2n1CCN1CCOCC1,-42.9%
19,NC(=O)c1ccccc1N,12.4%
20,CC1=C(C(=O)OCc2ccccc2)C(c2ccc(Cl)cc2Cl)NC(=O)N1CCCC(=O)O (stereo not shown),1.31%

row,Compound,"hERG current change (%, negative = inhibition) at 10uM"
1,O=C(Nc1nnc(C2CC2)s1)C1COc2ccccc2O1 (stereo not shown),23.7%
2,COc1ccc(OCc2nnc(NC(=O)Nc3ccccc3F)s2)cc1,-2.13%
3,CC(=O)c1cc(C(c2csc(C(C)=O)c2)c2csc(C(C)=O)c2)cs1,-72.6%
4,Cc1nc(CCN2C(=O)c3ccccc3C2=O)n[nH]1,0.341%
5,Cc1cc(N/N=C/c2ccc(F)cc2)nc(NCc2ccccc2)n1,-64.2%
6,CC(C)[C@@H](C(=O)NCc1ccco1)N1C(=O)N2CCc3c([nH]c4ccccc34)[C@@]2(C)C1=O,-15.6%
7,COc1ccccc1CNC(=O)[C@H](NC(=O)C1CCN(C(=O)[C@@H](N)CCSC)CC1)C(C)C,-1.58%
8,CCc1ccc(NC(=O)CSc2nnc(COc3ccc4c(c3)CCCC4)o2)cc1,-9.57%
9,CN1C(=O)C(=O)/C(=C(/O)c2ccc(Br)cc2)C1c1cccc([N+](=O)[O-])c1 (stereo not shown),17%
10,COc1ccc(NP(=O)(Nc2ccc(OC)cc2)Oc2ccccc2)cc1,-13.9%
11,CCCC(C)c1nnc(NC(=O)C2CC(=O)N(CCc3ccc(F)cc3)C2)s1 (stereo not shown),-30.1%
12,CCCn1c(=O)c2ccccc2n2c(SCCNCCO)nnc12.O=C(O)C(=O)O,11.9%
13,CN(C)c1ccc(-c2nnn(Cc3ccccc3Br)n2)cc1,-15.7%
14,CCc1ccc(N2C(=O)C3ON(c4ccccc4)C(c4ccco4)C3C2=O)cc1 (stereo not shown),8.67%
15,Cc1ccc(NC(=O)CSc2nnc(-c3ccncc3)s2)cc1,5.52%
16,CCCCc1ccc(NC(=S)NCCO)cc1,-14%
17,CC(=O)C1C(=O)NC23CCCCC2C1c1ccccc1O3 (stereo not shown),-0.592%
18,Cc1ccc(/C=C/C(=O)N(Cc2cccs2)C2CCS(=O)(=O)C2)cc1 (stereo not shown),-79%
19,c1cc2c3c(cccc3c1)C(N1CCOCC1)=N2,-31%
20,Cc1sc2nc(CSc3ccccc3)nc(N3CCOCC3)c2c1C,2.04%

row,Compound,"hERG current change (%, negative = inhibition) at 10uM"
1,CC(C)(C)OC(=O)N1CCC(c2cc(-c3cccs3)n[nH]2)CC1,-1.2%
2,CC1(C)OC(=O)C(=NNc2ccc(C(=O)O)cc2)C(=O)O1,9.21%
3,COc1ccccc1NC(=O)CN1CCN(CC(=O)Nc2ccc3c(c2)OCCO3)CC1,-34.4%
4,N#Cc1ccccc1NCC(=O)N1CCN(S(=O)(=O)c2ccccc2)CC1,-1.49%
5,O=C(NCc1ccc(F)cc1)C1CCCN1C(=O)Nc1cccc(F)c1 (stereo not shown),-23.6%
6,O=C(O)CNC(=S)N(Cc1ccccc1)Cc1cccnc1,3.06%
7,Oc1ccc(NCc2cccc(OCc3ccc(F)cc3)c2)cc1,-3.36%
8,COC(=O)[C@@H]1CCCN1Cc1c(C(=O)N2CCOCC2)nc2c(C)cccn12,24.1%
9,COc1ccc(NC(=O)C(C)N2CCN(C)CC2)cc1.O=C(O)C(=O)O (stereo not shown),7.47%
10,O=C(NN1CCOCC1)c1ccc(Cl)cc1[N+](=O)[O-],9.31%
11,COc1ccc(NC(=O)CN(C)C(=O)c2cccc(S(=O)(=O)Nc3ccc(OC)cc3)c2)cc1,-33.2%
12,COc1ccccc1C(=O)Nc1ccc2c(c1)CN(Cc1cnc(C)s1)CC2,-6.71%
13,CCNc1nc(NCC)nc(SCCOC(=O)Nc2ccccc2)n1,-71%
14,N#Cc1ccccc1CCN1C(=O)c2ccccc2C1=O,20.3%
15,Cc1cc(Cl)ccc1OCC(=O)NCCCN1CCOCC1,-7.33%
16,C=CCC1(NC(C)c2ccccc2)CCCCC1 (stereo not shown),4.77%
17,O=C(CCCn1c(=S)[nH]c2ccccc2c1=O)NC1CCCC1,-14.7%
18,O=C(COC(=O)CCN=C1NS(=O)(=O)c2ccccc21)NNC(=O)c1ccccc1,6.7%
